# Reference: the BET-seq Pho4 binding data (Le et al. 2018)
# The list shows a part of the results. These are noisy estimates, calculated here from bound and input reads.
# Target: T1, Pho4 (S. cerevisiae) (UniProt P07270)
# T1 sequence: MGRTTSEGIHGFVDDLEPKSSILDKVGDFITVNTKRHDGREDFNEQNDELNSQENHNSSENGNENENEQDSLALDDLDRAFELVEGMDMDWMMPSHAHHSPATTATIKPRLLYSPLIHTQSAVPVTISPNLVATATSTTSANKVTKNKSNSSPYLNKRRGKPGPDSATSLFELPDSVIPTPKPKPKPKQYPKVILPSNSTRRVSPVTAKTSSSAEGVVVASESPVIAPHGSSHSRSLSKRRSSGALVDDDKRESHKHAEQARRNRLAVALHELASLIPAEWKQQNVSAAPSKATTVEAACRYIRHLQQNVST
# Experiment: relative binding free energy (BET-seq); higher = weaker binding
# Conditions: reference: library average
row,Sequence,relative binding free energy
1,TATTCCACGTGAGGGG,0.19 kcal/mol
2,GTGTTCACGTGGTATG,0.26 kcal/mol
3,TGAAGCACGTGAGTCG,0.17 kcal/mol
4,TAGAACACGTGTTAGT,-0.03 kcal/mol
5,AATCTCACGTGTTGAG,0.32 kcal/mol
6,CGTGTCACGTGGCATG,-0.04 kcal/mol
7,GGATGCACGTGGTACT,-0.05 kcal/mol
8,TTAGACACGTGTAGTA,-0.19 kcal/mol
9,GTGTACACGTGGATAG,0.03 kcal/mol
10,ATGGTCACGTGCGCAG,0.06 kcal/mol
11,GGGCGCACGTGGATTG,-0.07 kcal/mol
12,GGTGACACGTGGAGAA,0.04 kcal/mol
13,TTTTGCACGTGCTGAA,-0.03 kcal/mol
14,TGCTTCACGTGAGTAT,0.32 kcal/mol
15,TTGTGCACGTGGTACT,-0.17 kcal/mol
16,ATTAACACGTGGGCAG,-0.08 kcal/mol
17,GTTCTCACGTGTGTAA,0.37 kcal/mol
18,TATGTCACGTGATTTG,0.27 kcal/mol
19,GTGTGCACGTGCTATT,-0.12 kcal/mol
20,GGTACCACGTGGGGTT,-0.13 kcal/mol
21,TTTGCCACGTGTCGTG,-0.08 kcal/mol
22,GTTATCACGTGCGGGC,0.31 kcal/mol
23,TTTTGCACGTGGTTTT,0.06 kcal/mol

row,Sequence,relative binding free energy
1,AGCATCACGTGGGTCG,-0.01 kcal/mol
2,TAATACACGTGTCGGG,0.11 kcal/mol
3,AGGCACACGTGGAGTG,-0.05 kcal/mol
4,GAAATCACGTGGTTAT,0.27 kcal/mol
5,TGTCTCACGTGGTTCT,0.03 kcal/mol
6,TCCGTCACGTGGGGTT,0.01 kcal/mol
7,TTGTTCACGTGTTATT,0.22 kcal/mol
8,GTGAACACGTGTGGCG,-0.04 kcal/mol
9,CAGAACACGTGGTGTG,-0.04 kcal/mol
10,GTTTACACGTGCGTTG,0.03 kcal/mol
11,TTTAGCACGTGAAATA,0.15 kcal/mol
12,TATGTCACGTGTAGTA,-0.01 kcal/mol
13,TAGGTCACGTGTGGGG,0.17 kcal/mol
14,TTCGGCACGTGTTTCG,0.03 kcal/mol
15,ATATGCACGTGCGGGG,-0.08 kcal/mol
16,GGTTCCACGTGGGGTT,0.01 kcal/mol
17,TCTATCACGTGTGATG,0.11 kcal/mol
18,ATAGTCACGTGTTGTG,0.02 kcal/mol
19,AGGTGCACGTGTCGAT,0.01 kcal/mol
20,AGTTGCACGTGATTGA,0.09 kcal/mol
21,GAGGACACGTGTAAGT,0.18 kcal/mol
22,ATATCCACGTGAGTGG,0.32 kcal/mol
23,TTGTACACGTGTTTAC,0.04 kcal/mol

row,Sequence,relative binding free energy
1,TGAGGCACGTGGGGAC,-0.17 kcal/mol
2,TATGTCACGTGTGTCT,0.17 kcal/mol
3,TTGTCCACGTGGGTCA,-0.11 kcal/mol
4,CTTTTCACGTGATTTT,0.24 kcal/mol
5,GCGCGCACGTGTAGGG,-0.15 kcal/mol
6,TTGTTCACGTGTGGAA,0.26 kcal/mol
7,GGGGCCACGTGGGATA,-0.21 kcal/mol
8,AAAAGCACGTGTTGGT,-0.04 kcal/mol
9,GCATGCACGTGGTGGT,-0.09 kcal/mol
10,TGGTTCACGTGGTAAG,0.27 kcal/mol
11,TTGTACACGTGGCTTA,-0.1 kcal/mol
12,TTATGCACGTGTTGCG,-0.05 kcal/mol
13,TCATGCACGTGCTGTG,-0.07 kcal/mol
14,TTTGTCACGTGACAGG,0.18 kcal/mol
15,GTCCTCACGTGTGGGT,0.09 kcal/mol
16,CGTTGCACGTGTGAAG,0.06 kcal/mol
17,TATATCACGTGTTTAG,0.15 kcal/mol
18,CATGTCACGTGATTTG,0.25 kcal/mol
19,TGTGCCACGTGCGGTA,-0.21 kcal/mol
20,AGGCTCACGTGGTTCT,0.24 kcal/mol
21,GCTGACACGTGGTGGA,0.04 kcal/mol
22,AAGGGCACGTGTATTT,0.07 kcal/mol
23,GAGTTCACGTGGATGA,0.25 kcal/mol

row,Sequence,relative binding free energy
1,TTGGGCACGTGTTGCG,-0.08 kcal/mol
2,TTAGACACGTGGTCGT,-0.07 kcal/mol
3,TTATACACGTGTAGGT,0.06 kcal/mol
4,GGGGTCACGTGCTTTT,0.17 kcal/mol
5,ATGAGCACGTGTGAGC,-0.02 kcal/mol
6,GGGTACACGTGTGGAC,0.16 kcal/mol
7,TTCTGCACGTGATTAT,0.16 kcal/mol
8,TTTGCCACGTGCGTTG,-0.17 kcal/mol
9,GTCTTCACGTGGTGAG,0.35 kcal/mol
10,GTATACACGTGATGAG,0.09 kcal/mol
11,TGTTCCACGTGTTTAG,0.02 kcal/mol
12,TAGTTCACGTGCGCTG,0.22 kcal/mol
13,CGGTTCACGTGGTACT,0.2 kcal/mol
14,GATAACACGTGGGATT,0.04 kcal/mol
15,GTGAACACGTGTGCTT,0.14 kcal/mol
16,GATTGCACGTGATAGT,0.16 kcal/mol
17,GCTGTCACGTGCGGGT,0.11 kcal/mol
18,GAACGCACGTGGTTGG,-0.05 kcal/mol
19,TAGTGCACGTGAGGCT,0.23 kcal/mol
20,TTTACCACGTGTTTTG,-0.02 kcal/mol
21,TTTAGCACGTGAATAA,0.14 kcal/mol
22,ATTATCACGTGTTGTA,0.07 kcal/mol
23,TTAAGCACGTGTAAGA,0.01 kcal/mol

row,Sequence,relative binding free energy
1,ATGTTCACGTGTGGCG,0.17 kcal/mol
2,GGAGTCACGTGGAGGA,0.13 kcal/mol
3,TATTACACGTGTATAG,0.07 kcal/mol
4,TTGGTCACGTGAGGAG,0.31 kcal/mol
5,TGAAACACGTGTGATG,-0.05 kcal/mol
6,GTGAACACGTGGAGTG,0 kcal/mol
7,AGTGGCACGTGATTTT,0.1 kcal/mol
8,TATGGCACGTGTAAAT,0.1 kcal/mol
9,TGTCTCACGTGGGGAA,-0.07 kcal/mol
10,TTATTCACGTGAAGAT,0.3 kcal/mol
11,CGCGGCACGTGATAGG,-0.04 kcal/mol
12,AAGGGCACGTGGTGTT,-0.06 kcal/mol
13,CGTTACACGTGATGTT,0.25 kcal/mol
14,ATTATCACGTGGTTTG,0.08 kcal/mol
15,AAGATCACGTGGCGGG,0.1 kcal/mol
16,TTCAGCACGTGGGCTT,-0.23 kcal/mol
17,TTATTCACGTGCATTG,0.12 kcal/mol
18,TTGGGCACGTGGAGCA,-0.02 kcal/mol
19,GTGAGCACGTGTGTAA,0.14 kcal/mol
20,AAGATCACGTGGAATT,0.32 kcal/mol
21,GGAGTCACGTGTGATT,0.26 kcal/mol
22,CGTCGCACGTGGATGG,-0.01 kcal/mol
23,GTCGCCACGTGTGTGG,-0.02 kcal/mol
